The supplement of paper PMC4967469

How the values were obtained:
Test in all cases: Viability of human cancer cell lines after 72 h of drug (GDSC screen)
[1] = compound: Cc1cnc(-c2cnc(NCCNc3ccc(C#N)cn3)nc2-c2ccc(Cl)cc2Cl)[nH]1 [CHIR-99021]
Experimental: (§1)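 Human cancer cell lines in 384-well plates, medium with 10% serum, drug for 72 h over a 256-fold dose range (nine 2-fold or five 4-fold steps up to the top dose). Adherent lines were fixed and stained with the nucleic acid dye Syto60, suspension lines read with resazurin; signal relative to control wells, capped at 0 and 100%. One two-parameter sigmoid per drug and line, fitted in a mixed model over all curves with the slope shared within a line.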

[2] = compound: C=CC(=O)Nc1cc(-n2c(=O)ccc3cnc4ccc(-c5cn[nH]c5)cc4c32)ccc1C [QL-X-138]; settings: top dose 10.24 µM; top dose inferred
Experimental: as §1

[3] = compound: COc1nc(C)cnc1NS(=O)(=O)c1cccnc1-c1ccc(-c2nnco2)cc1 [Zibotentan]; settings: top dose 20 µM; top dose inferred
Experimental: as §1

[4] = compound: COc1cc(O)c2c(c1)/C=C/C[C@H](O)[C@H](O)C(=O)/C=C\C[C@H](C)OC2=O [(5Z)-7-Oxozeaenol]; settings: top dose 10 µM; top dose inferred
Experimental: as §1

[5] = compound: C/C=C(/C)C(=O)O[C@H]1C(C)=C2[C@H]([C@@H]1OC(=O)CCCCCCC)[C@@](C)(OC(C)=O)C[C@H](OC(=O)CCC)[C@@]1(O)[C@H]2OC(=O)[C@@]1(C)O [Thapsigargin]; settings: top dose 0.512 µM; top dose inferred
Experimental: as §1

[6] = compound: COc1cc(N2CCC(O)CC2)ccc1Nc1cc(Nc2ccccc2S(=O)(=O)C(C)C)c2cc[nH]c2n1 [MPS-1-IN-1]; settings: top dose 20 µM; top dose inferred
Experimental: as §1

[7] = compound: COc1cc2ncnc(-n3nc(-c4ccccn4)nc3N)c2cc1OC [CP466722]; settings: top dose 16 µM; top dose inferred
Experimental: as §1

[8] = compound: Cc1ccc(F)c(NC(=O)Nc2ccc(-c3cccc4[nH]nc(N)c34)cc2)c1 [ABT-869]; settings: top dose 1.024 µM; top dose inferred
Experimental: as §1

[9] = compound: CCn1c(-c2nonc2N)nc2cnc(Oc3cccc(NC(=O)c4ccc(OCCN5CCOCC5)cc4)c3)cc21 [GSK269962A]; settings: top dose 5 µM; screen: GDSC drug entry 1192; top dose inferred
Experimental: as §1

[10] = top dose 2.56 µM, screen: GDSC drug entry 154
[11] = top dose 10 µM, screen: GDSC drug entry 1241, top dose inferred

| Cell Line | AUC [1, 10] | IC50 [1, 10] | AUC [1, 11] | IC50 [1, 11] | AUC [2] | IC50 [2] | AUC [3] | IC50 [3] | AUC [4] | IC50 [4] | AUC [5] | IC50 [5] | AUC [6] | IC50 [6] | AUC [7] | IC50 [7] | AUC [8] | IC50 [8] | AUC [9] | IC50 [9] |
| --- | --- | --- | --- | --- | --- | --- | --- | --- | --- | --- | --- | --- | --- | --- | --- | --- | --- | --- | --- | --- |
| HO-1-N-1 (head and neck, adherent) | 0.988 | > 2.56 µM | 0.951 | > 10 µM | 0.887 | 9.84 µM | 0.988 | > 20 µM | 0.474 | 0.534 µM | 0.837 | 0.303 µM | 0.961 | > 20 µM | 0.932 | > 16 µM | 0.987 | > 1.02 µM | 0.815 | 2.46 µM |
| HPAC (pancreas, adherent) | 0.978 | > 2.56 µM | 0.976 | > 10 µM | 0.79 | 6.76 µM | 0.979 | > 20 µM | 0.765 | 5.16 µM | 0.085 | < 0.002 µM | 0.786 | 12.7 µM | 0.858 | > 16 µM | 0.979 | > 1.02 µM | 0.918 | > 5 µM |
| HPAF-II (pancreas, adherent) | 0.971 | > 2.56 µM | 0.963 | > 10 µM | 0.813 | 7.75 µM | 0.972 | > 20 µM | 0.585 | 1.15 µM | 0.627 | 0.0799 µM | 0.842 | > 20 µM | 0.886 | > 16 µM | 0.981 | > 1.02 µM | 0.808 | 3.63 µM |
| HSC-3 (head and neck, adherent) | 0.976 | > 2.56 µM | 0.981 | > 10 µM | 0.903 | 10.1 µM | 0.99 | > 20 µM | 0.413 | 0.374 µM | 0.35 | 0.0132 µM | 0.977 | > 20 µM | 0.95 | > 16 µM | 0.985 | > 1.02 µM | 0.342 | 0.122 µM |
| HTC-C3 (thyroid, adherent) | 0.98 | > 2.56 µM | 0.961 | > 10 µM | 0.728 | 3.12 µM | 0.983 | > 20 µM | 0.27 | 0.127 µM | 0.407 | 0.0173 µM | 0.842 | 16.7 µM | 0.676 | 3.31 µM | 0.975 | > 1.02 µM | 0.96 | > 5 µM |
| Hs940-T (melanoma, adherent) | 0.798 | 1.53 µM | 0.839 | 9.01 µM | 0.638 | 1.68 µM | 0.984 | > 20 µM | 0.789 | 5.5 µM | 0.163 | 0.00227 µM | 0.984 | > 20 µM | 0.699 | 4.15 µM | 0.982 | > 1.02 µM | 0.646 | 0.869 µM |
| IM-95 (stomach, adherent) | 0.956 | > 2.56 µM | 0.979 | > 10 µM | 0.76 | 3.84 µM | 0.984 | > 20 µM | 0.972 | > 10 µM | 0.202 | 0.00389 µM | 0.923 | > 20 µM | 0.832 | 11.2 µM | 0.972 | > 1.02 µM | 0.935 | > 5 µM |
| J82 (bladder, adherent) | 0.976 | > 2.56 µM | 0.948 | > 10 µM | 0.899 | > 10.2 µM | 0.987 | > 20 µM | 0.632 | 1.44 µM | 0.277 | 0.0075 µM | 0.986 | > 20 µM | 0.974 | > 16 µM | 0.978 | > 1.02 µM | 0.825 | 2.99 µM |
| KP-4 (pancreas, adherent) | 0.988 | > 2.56 µM | 0.985 | > 10 µM | 0.622 | 1.37 µM | 0.986 | > 20 µM | 0.636 | 1.46 µM | 0.295 | 0.00873 µM | 0.98 | > 20 µM | 0.877 | 14.9 µM | 0.988 | > 1.02 µM | 0.72 | 1.28 µM |
| KYSE-180 (oesophagus, adherent) | 0.926 | > 2.56 µM | 0.984 | > 10 µM | 0.83 | 6.01 µM | 0.987 | > 20 µM | 0.79 | 4.25 µM | 0.195 | 0.00419 µM | 0.728 | 5.38 µM | 0.877 | 14.8 µM | 0.984 | > 1.02 µM | 0.861 | 3.93 µM |
| KYSE-270 (oesophagus, adherent) | 0.972 | > 2.56 µM | 0.964 | > 10 µM | 0.886 | 8.43 µM | 0.991 | > 20 µM | 0.674 | 1.75 µM | 0.167 | 0.00386 µM | 0.877 | 15 µM | 0.897 | 14.7 µM | 0.979 | > 1.02 µM | 0.922 | > 5 µM |
| LU-99A (large cell lung carcinoma, adherent) | 0.987 | > 2.56 µM | 0.983 | > 10 µM | 0.918 | > 10.2 µM | 0.986 | > 20 µM | 0.581 | 1.04 µM | 0.194 | 0.00397 µM | 0.868 | 17.9 µM | 0.839 | 10.8 µM | 0.984 | > 1.02 µM | 0.923 | > 5 µM |
| ML-1 (thyroid, adherent) | 0.892 | > 2.56 µM | 0.977 | > 10 µM | 0.806 | 6.33 µM | 0.982 | > 20 µM | 0.742 | 3.52 µM | 0.151 | 0.0021 µM | 0.963 | > 20 µM | 0.757 | 6.39 µM | 0.983 | > 1.02 µM | 0.944 | > 5 µM |

A lower IC50 marks a more sensitive line; a limit (>, <) means that the fit lies beyond the doses tested. AUC, from the same fit, is the share of area under the viability curve across the 256-fold dose range; values near 1 show little effect. A top dose marked as inferred was derived from the fitted curves, not read from the paper. For some assays here: Drugs with an entry number were screened twice under separate entries, and the two screens often disagree.
